Data: PMC6720716
No constants are given. Whether binding was seen depends on the method and setting. In cells and extracts the contact can be indirect. Some results given as binding are weak or reduced against the parent protein; the word gives no strength.

Chains of the proteins cited; added tags and fusions are not shown. Residues count along the entry.
UniProt Q924X6, residues 29-996: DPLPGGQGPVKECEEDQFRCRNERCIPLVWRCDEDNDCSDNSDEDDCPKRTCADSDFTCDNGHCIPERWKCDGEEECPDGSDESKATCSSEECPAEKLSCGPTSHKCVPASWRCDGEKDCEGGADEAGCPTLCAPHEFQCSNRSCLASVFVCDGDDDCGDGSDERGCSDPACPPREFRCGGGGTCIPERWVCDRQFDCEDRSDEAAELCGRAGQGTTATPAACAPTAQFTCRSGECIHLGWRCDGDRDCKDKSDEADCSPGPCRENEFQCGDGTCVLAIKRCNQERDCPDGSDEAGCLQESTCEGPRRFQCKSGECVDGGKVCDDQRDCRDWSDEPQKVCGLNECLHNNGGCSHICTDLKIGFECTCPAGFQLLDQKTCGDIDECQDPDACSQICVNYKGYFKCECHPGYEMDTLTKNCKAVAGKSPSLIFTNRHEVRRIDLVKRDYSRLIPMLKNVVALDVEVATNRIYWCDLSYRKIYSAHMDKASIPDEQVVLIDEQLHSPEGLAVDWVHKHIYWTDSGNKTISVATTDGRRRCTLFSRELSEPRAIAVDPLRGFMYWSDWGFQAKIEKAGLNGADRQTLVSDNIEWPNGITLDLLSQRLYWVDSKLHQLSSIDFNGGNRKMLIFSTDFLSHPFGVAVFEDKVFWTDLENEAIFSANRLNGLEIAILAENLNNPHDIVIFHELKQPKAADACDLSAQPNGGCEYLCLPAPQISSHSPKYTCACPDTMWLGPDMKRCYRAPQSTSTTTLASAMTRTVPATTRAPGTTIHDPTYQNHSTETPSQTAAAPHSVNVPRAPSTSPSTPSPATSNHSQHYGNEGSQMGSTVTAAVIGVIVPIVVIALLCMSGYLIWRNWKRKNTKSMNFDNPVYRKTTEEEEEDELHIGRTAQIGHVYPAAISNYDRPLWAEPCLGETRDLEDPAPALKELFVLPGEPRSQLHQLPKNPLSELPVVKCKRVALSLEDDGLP
UniProt Q01097, residues 27-1482: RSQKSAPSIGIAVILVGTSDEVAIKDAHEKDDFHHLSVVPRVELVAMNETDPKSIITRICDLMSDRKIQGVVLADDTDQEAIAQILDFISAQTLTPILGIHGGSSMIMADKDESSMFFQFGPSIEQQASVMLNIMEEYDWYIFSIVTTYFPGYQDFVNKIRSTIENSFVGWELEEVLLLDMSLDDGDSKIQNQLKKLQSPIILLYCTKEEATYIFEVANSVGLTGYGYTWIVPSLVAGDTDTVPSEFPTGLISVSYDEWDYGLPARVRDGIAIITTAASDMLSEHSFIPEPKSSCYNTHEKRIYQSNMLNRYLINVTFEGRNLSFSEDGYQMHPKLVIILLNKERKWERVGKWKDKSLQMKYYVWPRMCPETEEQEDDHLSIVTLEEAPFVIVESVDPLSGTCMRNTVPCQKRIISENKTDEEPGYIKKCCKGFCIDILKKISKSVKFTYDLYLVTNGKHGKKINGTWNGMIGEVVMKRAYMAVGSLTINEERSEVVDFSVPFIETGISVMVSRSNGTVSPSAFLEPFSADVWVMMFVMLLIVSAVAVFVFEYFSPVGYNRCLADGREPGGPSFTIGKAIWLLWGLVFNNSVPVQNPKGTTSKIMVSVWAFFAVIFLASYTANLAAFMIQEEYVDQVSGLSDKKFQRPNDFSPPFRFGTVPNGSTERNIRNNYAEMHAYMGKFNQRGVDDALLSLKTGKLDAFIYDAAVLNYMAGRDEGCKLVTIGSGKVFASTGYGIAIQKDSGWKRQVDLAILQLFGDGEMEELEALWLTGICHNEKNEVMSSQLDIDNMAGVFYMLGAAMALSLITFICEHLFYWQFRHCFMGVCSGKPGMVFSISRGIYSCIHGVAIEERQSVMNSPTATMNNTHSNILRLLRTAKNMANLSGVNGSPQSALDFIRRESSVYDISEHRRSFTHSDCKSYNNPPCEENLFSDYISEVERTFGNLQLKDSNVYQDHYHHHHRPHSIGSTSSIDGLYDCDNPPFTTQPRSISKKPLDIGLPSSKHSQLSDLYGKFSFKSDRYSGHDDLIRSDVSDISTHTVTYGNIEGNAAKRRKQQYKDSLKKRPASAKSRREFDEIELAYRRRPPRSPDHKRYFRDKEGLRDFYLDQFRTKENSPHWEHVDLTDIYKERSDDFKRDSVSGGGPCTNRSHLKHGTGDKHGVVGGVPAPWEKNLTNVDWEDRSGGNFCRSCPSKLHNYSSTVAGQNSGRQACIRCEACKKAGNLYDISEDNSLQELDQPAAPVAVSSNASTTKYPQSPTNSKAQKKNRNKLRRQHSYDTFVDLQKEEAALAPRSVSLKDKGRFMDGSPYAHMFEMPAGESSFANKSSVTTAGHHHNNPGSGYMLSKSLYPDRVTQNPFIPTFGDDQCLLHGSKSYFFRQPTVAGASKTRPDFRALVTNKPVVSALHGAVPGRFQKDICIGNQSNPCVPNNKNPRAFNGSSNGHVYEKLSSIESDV
UniProt P98156, residues 28-873: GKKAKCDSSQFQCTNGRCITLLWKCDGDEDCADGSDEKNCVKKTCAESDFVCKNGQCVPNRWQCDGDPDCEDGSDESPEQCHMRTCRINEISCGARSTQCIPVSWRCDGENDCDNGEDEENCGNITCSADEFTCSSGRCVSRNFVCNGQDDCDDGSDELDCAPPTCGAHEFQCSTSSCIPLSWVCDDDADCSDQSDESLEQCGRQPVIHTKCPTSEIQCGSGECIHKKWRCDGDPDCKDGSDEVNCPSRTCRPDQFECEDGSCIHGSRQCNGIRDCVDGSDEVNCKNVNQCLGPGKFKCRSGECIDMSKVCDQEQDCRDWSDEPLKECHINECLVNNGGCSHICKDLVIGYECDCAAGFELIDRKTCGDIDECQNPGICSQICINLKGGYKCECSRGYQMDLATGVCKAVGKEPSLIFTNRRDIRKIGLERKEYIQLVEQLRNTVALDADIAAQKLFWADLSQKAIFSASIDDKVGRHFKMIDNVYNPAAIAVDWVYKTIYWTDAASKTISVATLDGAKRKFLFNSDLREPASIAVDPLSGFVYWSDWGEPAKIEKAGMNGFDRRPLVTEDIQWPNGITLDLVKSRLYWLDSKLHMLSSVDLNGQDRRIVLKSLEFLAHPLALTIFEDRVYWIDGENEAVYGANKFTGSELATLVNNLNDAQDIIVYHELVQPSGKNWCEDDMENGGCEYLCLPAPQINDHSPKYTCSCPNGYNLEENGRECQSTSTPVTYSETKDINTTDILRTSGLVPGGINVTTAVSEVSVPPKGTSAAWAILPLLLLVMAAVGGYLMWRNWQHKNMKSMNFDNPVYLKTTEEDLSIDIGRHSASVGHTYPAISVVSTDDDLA

T1: SIL1 (mouse (endogenous in mouse cortical tissue)) (UniProt Q9EPK6)
T1 sequence: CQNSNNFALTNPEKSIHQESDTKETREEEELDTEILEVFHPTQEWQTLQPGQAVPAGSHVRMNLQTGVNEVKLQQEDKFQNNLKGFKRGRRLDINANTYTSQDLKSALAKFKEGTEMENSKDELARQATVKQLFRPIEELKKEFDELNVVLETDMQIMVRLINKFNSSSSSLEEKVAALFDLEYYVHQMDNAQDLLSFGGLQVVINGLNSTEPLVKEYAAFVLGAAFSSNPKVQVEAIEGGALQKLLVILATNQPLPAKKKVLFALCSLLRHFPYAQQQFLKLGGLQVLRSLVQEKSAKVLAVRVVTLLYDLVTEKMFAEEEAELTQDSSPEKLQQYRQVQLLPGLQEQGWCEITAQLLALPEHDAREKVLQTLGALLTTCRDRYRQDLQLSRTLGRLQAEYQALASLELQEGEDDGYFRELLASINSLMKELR

B1: SIL1 (protein, UniProt Q9EPK6 32-465)
chain: T1 sequence

Columns and labels:
Experiment in all cases: co-IP; mouse cortical tissue extract, 1 ug/ul; 10 ug antibody in 200 ul overnight at 4°C, protein A-sepharose beads 2 hr at 4°C; rinsed three times with binding buffer and once with binding buffer containing 500 mM NaCl; Western blot
[1] = target: T1, SIL1 (mouse (endogenous in mouse cortical tissue))
[2] = target: GluN2A (mouse (endogenous in mouse cortical tissue)) (UniProt P35436)
[3] = target: ApoER2 (mouse (endogenous in mouse cortical tissue)) (UniProt Q924X6)
[4] = target: GluN2B (mouse (endogenous in mouse cortical tissue)) (UniProt Q01097)
[5] = target: VLDLR (mouse (endogenous in mouse cortical tissue)) (UniProt P98156)

Molecule | binding [1] | binding [2] | binding [3] | binding [4] | binding [5]
GluN2A (from UniProt P35436 23-1464) (receptor) | binds | – | – | – | –
B1 | – | binds | binds | no binding | binds
